# Results from PMC10668032.
# This is one part of the list. At the low end of the ranking, values are background and their order means little.
# Biological target: SIX1 homeodomain (reference allele) (UniProt Q15475)
# Test: universal protein binding microarray
# Conditions: Universal all-10-mer PBM (8x60K, AMADID 030236), 300 nM GST-tagged protein, Alexa Fluor 488 anti-GST; buffer, salt, pH and temperature not stated; high values mean tight binding; most listed sequences are background and not binding sites; double strand, one strand shown
row,Sequence,binding signal [E-score]
1,GTCTCCGA,-0.0094
2,CGACCCGA,0.189
3,AGTTGCAG,-0.0903
4,ATCCCCAT,0.295
5,CCCGCAGG,-0.073
6,AGGTCCAT,-0.175
7,CGCTGATC,0.279
8,AGCGAGGC,-0.0637
9,AGATTTAA,-0.0172
10,CCGCATAA,0.172
11,ACTAGGCT,0.0286
12,CCCCGCAC,0.189
13,CTAGTGAA,-0.165
14,CCGCATCG,0.153
15,GGCGACTA,-0.0635
16,AGTTTAAG,-0.286
17,CGTCTGAC,-0.0289
18,CCATCGGA,0.0092
19,AAGGGAGA,0.0674
20,ACTGCGTG,-0.0913
21,GCCGCAGA,-0.121
22,ATCGACAG,0.0865

row,Sequence,binding signal [E-score]
1,AGGGAACG,-0.238
2,ACCGGCCG,0.0327
3,AGATCTGG,0.221
4,AATCGAGC,-0.126
5,CATTGAGC,-0.222
6,AAAGAGCC,-0.249
7,AAGAAATT,-0.302
8,GCTCCCAC,-0.169
9,CAAGAGCA,-0.175
10,CATTTGCA,-0.0443
11,AATCCGGT,0.252
12,ACGAGGCT,-0.0928
13,TCGGCCAA,-0.204
14,CATCGATA,0.308
15,GACGCGCC,-0.0316
16,GGACCACC,-0.00528
17,AGCCGCCG,-0.134
18,GAATAGAC,-0.147
19,CGTAATAA,-0.0069
20,CCTTTACG,0.0121
21,GTCATTTA,0.0488
22,GATTGTTA,0.0648

row,Sequence,binding signal [E-score]
1,AAATATGG,0.0106
2,AAGCAATG,-0.00951
3,CGTCCGGC,-0.0156
4,GCCCAGCC,-0.0883
5,CCAGAACA,-0.0153
6,GAGTGAGC,0.00749
7,GTTTAGTA,-0.0929
8,CCGCGTTC,0.0464
9,AAGCCGTG,-0.0841
10,CCTAGGAG,-0.115
11,CTAATCGC,0.076
12,CAATGAAA,0.035
13,AGAGGGCC,-0.209
14,GCTGGGAA,-0.0626
15,AATACTTC,0.2
16,AATATGAC,0.145
17,AAAAAAAG,-0.198
18,GCTCAGCC,-0.118
19,ACGTACTA,0.0776
20,CTCTGGAC,-0.168
21,ACAATACG,0.25
22,CCATTCAA,-0.0832

row,Sequence,binding signal [E-score]
1,ATCATTCG,0.294
2,GCGCATAC,-0.083
3,CCTCTACG,0.12
4,CACCCAAA,0.0136
5,ACATAGCC,0.087
6,TCCCAGAA,-0.0683
7,AGACAAAA,-0.298
8,ACAGACAG,-0.034
9,TACGGCCA,-0.104
10,CCCAACTC,-0.0741
11,AAGTCCAT,-0.125
12,CAGGTTAA,-0.0882
13,ATTATAAG,0.0247
14,CAAATACC,0.0657
15,AGGCCTCG,-0.203
16,AGCTCCAA,-0.157
17,CCCGTTAC,0.0129
18,GAATCTGA,0.121
19,AATGTTTC,-0.302
20,AAGCGCGG,-0.146
